Experimental data published in patent US20250215093A1 (ZYTOX THERAPEUTICS, published 2025).

Biological target: T1, Human serum albumin (human, UniProt P02768)
T1 construct: also called HSA
Test: SPR, ZB05 injected over immobilised HSA

B1: ZB05 anti-idiotypic affibody masking domain (designed binder)
chain: VDAKYAKEIRSATEIWWLPNLTADQKWAFIYKLVDDPSQSSELLSEAKKLNDSQAPK
notes: Soluble monomer with C-terminal His-tag (7.6 kDa) in SPR; also called ZB05 masking candidate; not shown: C-terminal His-tag of the soluble monomer
- binding result: no binding
